# Laboratory results taken from PubChem BioAssay AID1346428 (National Center for Advancing Translational Sciences (NCATS), 2018).
# Several values for one entry are separate records, joined by “and”; a condition that tells them apart may be missing. Identical values can stand only once. The whole screen tested about 48,000 compounds, of which about 1,200 (2.5%) were called active. About 2% were inconclusive and are not listed.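 The calls were made as follows: active = activation of at least 60% and not above a set upper limit (about 1 call in 100 departs from these limits); inconclusive = activation of 40% to 60%, or above that upper limit; inactive = activation under 40%.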 The list shows a part of the results.
# Molecular target: Probable G-protein coupled receptor 32 (Homo sapiens) (UniProt O75388)
# Chain of UniProt O75388 (O75388 whole entry, looked up): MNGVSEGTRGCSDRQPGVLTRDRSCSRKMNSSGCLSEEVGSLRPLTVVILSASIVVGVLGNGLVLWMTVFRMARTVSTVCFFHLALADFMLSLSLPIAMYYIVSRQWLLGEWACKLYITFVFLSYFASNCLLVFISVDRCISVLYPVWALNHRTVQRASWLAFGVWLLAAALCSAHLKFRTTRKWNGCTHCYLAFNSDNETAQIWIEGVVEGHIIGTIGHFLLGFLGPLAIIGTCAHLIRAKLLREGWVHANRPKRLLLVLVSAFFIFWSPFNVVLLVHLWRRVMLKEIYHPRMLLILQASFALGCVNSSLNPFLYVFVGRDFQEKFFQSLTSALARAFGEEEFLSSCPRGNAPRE
# Assay: qHTS for Agonists of Human Resolvin D1 Receptor DRV1; also: 0% is about no effect
# Conditions: CHO-K1 GPR32 beta-arrestin PathHunter luminescence, 90 min; at 76.9 µM; stronger effect = higher value; zero percent set by DMSO-only wells
# How it was run: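 Engineered CHO-K1 line co-expressing GPR32-ProLink and EA-beta-arrestin. Compound treatment lasted 90 min at 37 °C. Luminescence was recorded after 1 h with substrate at ambient temperature, relative to DMSO basal wells.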
row,Compound,activation
1,C[N+]12CCC(CC1)C(OC(=O)C(O)(c1ccccc1)c1ccccc1)C2 (stereo unspecified),inactive: 1.52%
2,CCOC(=O)CNC(=O)Nc1cc(C(=O)NCc2ccc(C(C)C)cc2)ccc1N1CCCC1,inactive: -27%
3,COc1ccccc1-c1noc(CSc2nnc(-c3ccccc3)n2-c2ccc(C)c(C)c2)n1,inactive: -23.3%
4,Cc1cc(C)c(/C=C/c2onc(C)c2S(=O)(=O)N2CCC(C(=O)Nc3cccc(C)c3C)CC2)c(C)c1,inactive: -5.36%
5,CCOC(=O)c1c(C)oc2nc(C)nc(N(C)Cc3ccccc3)c12,inactive: -22%
6,CC(=O)c1ccc(NC(=O)CSc2nc(-c3ccccc3C)nc3c2c(=O)n(C)c(=O)n3C)cc1,inactive: -16.5%
7,O=C(C1CCCN(S(=O)(=O)c2cccc3nonc23)C1)N1CCN(c2cccc(C(F)(F)F)c2)CC1 (stereo unspecified),inactive: 21.9%
8,CCOc1ccc(C(=O)c2cn(Cc3cccc(OC)c3)c3cc4c(cc3c2=O)OCO4)cc1,inactive: -2.67%
9,Cc1ccc(S(=O)(=O)N2CCCC2C(=O)Nc2ccc(Br)cc2)cc1 (stereo unspecified),inactive: 9.86%
10,O=C(CSc1ncc(-c2ccc(Cl)cc2)[nH]1)Nc1ccccc1F,inactive: -21.9%
11,COc1cccc(-c2ccc3c(N)c(C(=O)c4ccc(F)cc4)sc3n2)c1,inactive: -5.11%
12,COc1ccc(CNc2ncnc3c2cnn3-c2ccc(Cl)cc2)cc1,inactive: 5.38%
13,CCOC(=O)c1c(C)oc2nc(C)nc(NCC3CCN(Cc4ccc(F)cc4)CC3)c12,inactive: -7.08%
14,COc1ccc(Nc2ccc3cc(S(=O)(=O)N4CCCC4)ccc3n2)cc1OC,inactive: -26%
15,Cc1ccc(CSC2=Nc3ccccc3C3=NC(CCC(=O)NCc4cccs4)C(=O)N23)c(C)c1 (stereo unspecified),inactive: -8.12%
16,O=C(Nc1ccc(Cl)c(-c2nc3ccccc3o2)c1)c1cccc2c(Cl)cccc12,inactive: -7.02%
17,Cc1cc(N2CCN(C)CC2)nc2ccc(NC(=O)Nc3ccc(F)cc3F)cc12,inactive: -2.61%
18,CCOC(=O)c1ccc(N2CCN(c3cc(Cl)ccc3C)CC2)c(NC(=O)Nc2ccc(OCC)cc2)c1,inactive: -11.1%
19,CCC(Oc1ccccc1)C(=O)N1CCN(Cc2cc(=O)n3nc(-c4cccc(C)c4)sc3n2)CC1 (stereo unspecified),active: 60.7%
20,Fc1ccc(-c2nc3c4c(-c5ccccc5)c(-c5ccccc5)oc4ncn3n2)cc1,inactive: -5.8%
21,CCC(=O)O[C@H]1[C@H](O[C@@H]2[C@@H](C)[C@H](O[C@H]3C[C@@](C)(OC)[C@@H](O)[C@H](C)O3)[C@@H](C)C(=O)O[C@H](CC)[C@@](C)(O)[C@H](O)[C@@H](C)C(=O)[C@H](C)C[C@@]2(C)O)O[C@H](C)C[C@@H]1N(C)C,inactive: -12.9%
22,COc1cc(Cl)c(NC(=O)CC(C)S(=O)(=O)c2cc3c(cc2C)NC(=O)CO3)c(OC)c1 (stereo unspecified),inactive: 20.8%
23,Cc1ccc(Cl)c(OCC(O)CNC(C)(C)C)c1 (stereo unspecified),inactive: 18.3%
24,Cc1ccc(-n2c(=O)c3c(c4cc(C)ccc4n3C)n(CC(=O)NCC3CCCO3)c2=O)cc1 (stereo unspecified),inactive: 12.7%
25,Cc1ccc(NS(=O)(=O)c2c(C)nc3sccn3c2=O)c(Cl)c1,inactive: 2.96%
26,Cc1ccc(NC(=O)CSc2nncn3c2cc2sccc23)cc1F,inactive: -15.7%

row,Compound,activation
1,Cc1nn(-c2ccc(N3CCCC3)nn2)c(C)c1CCC(=O)Nc1ccccc1,inactive: -11.8%
2,CCCCOC(=O)c1ccc(NC2=NS(=O)(=O)c3ccccc32)cc1,inactive: -4.57%
3,Cc1cccc(NC(=O)CCn2nc(C)c3c(C)n(-c4ccccc4)nc3c2=O)c1C,inactive: -2.7%
4,CC(C)c1ccc(NC(=O)c2cc(S(=O)(=O)N3CCc4ccccc4C3)ccc2F)cc1,inactive: -1.66%
5,Cc1ccc(-c2nc3n(n2)C(=O)CC(c2ccc(C)cc2)S3)cc1 (stereo unspecified),inactive: -8.99%
6,COc1ccc(/C=C(\C#N)c2nc3ccccc3c(=O)[nH]2)cc1OC,inactive: -12.3%
7,COc1ccccc1CNC(=O)COCc1cc(-c2ccc3c(c2)OCO3)on1,inactive: -10.2%
8,CCOc1ccc(S(=O)(=O)Nc2ccc3oc4c(c3c2)CC(C)CC4)cc1 (stereo unspecified),inactive: 36.5%
9,COc1cccc(CNS(=O)(=O)c2c(C(=O)N3CCC(C)CC3)c(C)n(C)c2C)c1,inactive: -20.1%
10,O=C(COc1ccc(F)cc1)OCc1cc(=O)n2nc(-c3cccs3)sc2n1,inactive: 20.3%
11,CC(C)CN(CC(C)C)CC(O)Cn1cc(/C=C/C(=O)c2ccccc2)c2ccccc21 (stereo unspecified),inactive: 8.61%
12,COc1cc(NS(=O)(=O)c2c(C)nc3sc(C)c(C)n3c2=O)cc(OC)c1,inactive: -2.6%
13,CCc1ccc(NC(=O)C2=CC(c3cccs3)=NS(=O)(=O)N2C)cc1,inactive: -9.83%
14,NC(N)=N/N=C/c1c(Cl)cccc1Cl,inactive: 19.2% and inactive: 8.27%
15,COc1ccc(C(=O)NCc2ccc3c(c2)CCN3C(=O)c2ccc(F)cc2)cc1,inactive: -13.4%
16,CCOc1ccccc1CNC(=O)Cn1nc(N2CCN(c3ccccc3)CC2)ccc1=O,active: 61.3%
17,COc1ccc(C)c2sc(NC(=O)c3ccc(S(=O)(=O)N4CCCC4)cc3)nc12,inactive: -7.6%
18,CC1CCN(S(=O)(=O)c2ccc3c(c2)N(CC(=O)NCC(C)c2ccccc2)C(=O)CO3)CC1 (stereo unspecified),inactive: -21.6%
19,Cc1c(C(=O)OCc2ccccc2)[nH]c2c1C(=O)CC(c1ccc(Cl)cc1)C2 (stereo unspecified),inactive: 24.1%
20,O=C(NCc1ccc(Cl)cc1)NC1COc2ccccc2C1 (stereo unspecified),inactive: -12.4%
21,CCOc1ccc(S(=O)(=O)Nc2cccc(-c3ccc(N4CCC(C)CC4)nn3)c2)cc1,inactive: -8.14%
22,Cn1nnnc1SCCCNCc1cccc(OCc2ccccc2)c1,inactive: -2.85%
23,CN(C)c1ccc(CNC(=O)C2COc3ccccc3C2)cc1 (stereo unspecified),inactive: -6.3%
24,O=C(CSc1ncccc1C(=O)Oc1ccccc1Cl)Nc1ccccc1Cl,inactive: -23.5%
25,O=C(NCc1ccco1)c1ccc(Cn2c(SCc3ccccc3F)nc3cccnc32)cc1,inactive: -17.3%
